This is one part of the list. The list includes weakly bound sequences.
The sequences below were run against MaxL homodimer (UniProt P61244) (assay: universal protein-binding microarray (PBM)). Conditions: PBS-based mixture, 10 nM His-tagged protein dimer, 2% milk, 200 ng/uL BSA, 50 ng/uL salmon testes DNA, 0.02% TX-100; detection with Alexa 488 anti-His …; high values mean tight binding; most listed sequences are background and not binding sites; double strand, one strand shown.
Sequence of UniProt P61244 (P61244 whole entry): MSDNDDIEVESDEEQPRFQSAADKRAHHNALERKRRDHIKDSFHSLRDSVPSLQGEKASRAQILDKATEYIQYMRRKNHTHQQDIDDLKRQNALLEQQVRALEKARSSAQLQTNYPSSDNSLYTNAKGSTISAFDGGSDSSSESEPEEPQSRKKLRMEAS

| Sequence | binding signal (normalized occupancy) |
| --- | --- |
| GCACTTCA | 0.0725 |
| CTTGTTGA | 0.0734 |
| CCCTACAA | 0.0782 |
| ATTGTTTC | 0.0729 |
| GGGCAACA | 0.0764 |
| CGTATAAG | 0.0761 |
| CGGTCGTC | 0.0684 |
| ACGCGCAG | 0.0787 |
| AATGGGCA | 0.0791 |
| ATCAGTCG | 0.0744 |
| GCTAGGTA | 0.0747 |
| CATTTAAC | 0.0804 |
| CCCCCATC | 0.0843 |
| ATCATCAG | 0.0786 |
| CCGCAAGA | 0.0718 |
| AATCTAAC | 0.0749 |
| CTGCACGC | 0.0997 |
| AAACCTAC | 0.0764 |
| CACCTCGG | 0.0772 |
| AAAATTTA | 0.0675 |
| GGGTCCGA | 0.0737 |
| CAATCCGA | 0.074 |
| TGGGAACA | 0.0807 |
| ATTGTTAG | 0.0774 |
| ATGAAAAT | 0.0785 |

| Sequence | binding signal (normalized occupancy) |
| --- | --- |
| ATGGGACG | 0.0781 |
| AAGGTGCT | 0.0733 |
| AGACTCAC | 0.0696 |
| ACGTCCAA | 0.0765 |
| ACATAGAT | 0.0774 |
| AATTGTGG | 0.0762 |
| CAGGTGGG | 0.101 |
| ATTTTATA | 0.0812 |
| AACTCGGC | 0.069 |
| AAGCTAGA | 0.0705 |
| ACAGTCGA | 0.0696 |
| AGTAGCCG | 0.0691 |
| CCAGTCGC | 0.0722 |
| ATGGGTAA | 0.078 |
| AAGCCTGT | 0.0732 |
| GGAACACC | 0.0733 |
| GCCGCATA | 0.0742 |
| GGGCGCTA | 0.0692 |
| ACCATTGC | 0.0746 |
| CTAGGACC | 0.0697 |
| CTGCTACC | 0.0844 |
| ATGATAGC | 0.0828 |
| ATTGGGCG | 0.0761 |
| AAAAATGA | 0.0781 |
| AGATTGAC | 0.0796 |

| Sequence | binding signal (normalized occupancy) |
| --- | --- |
| CCCTACAC | 0.0837 |
| ACGGATAA | 0.0801 |
| CGTCTATA | 0.0838 |
| ACGCCGAC | 0.0741 |
| AAGTATTC | 0.075 |
| ACTCCCGA | 0.0719 |
| AGCCTACT | 0.0724 |
| ACACGCTA | 0.0915 |
| AACTGAGT | 0.0721 |
| AGGACTTC | 0.0699 |
| CAAATTTC | 0.0715 |
| ATGCAATC | 0.0819 |
| AATCTGTC | 0.0759 |
| CACTCAGG | 0.0732 |
| ACTAGTCT | 0.0733 |
| GAATTTGA | 0.073 |
| AACTAGCC | 0.0676 |
| CAGCGAGG | 0.0778 |
| AGACCAGC | 0.0672 |
| TCGTTTAA | 0.0745 |
| ACACGAAT | 0.0776 |
| CATGCTGA | 0.112 |
| CTCACGTA | 0.0774 |
| CAAATCAA | 0.0782 |
| ATCGGGAA | 0.0725 |

| Sequence | binding signal (normalized occupancy) |
| --- | --- |
| CACCGGCG | 0.0698 |
| ATTACCCC | 0.0859 |
| ATTTGGAA | 0.0767 |
| CTCTGCCA | 0.0764 |
| GGCACAAA | 0.0731 |
| ATTTCCAG | 0.0763 |
| CCACTATC | 0.0771 |
| GGAACAGA | 0.0729 |
| CCGTCCAG | 0.0727 |
| AGTAGGGA | 0.0699 |
| CAAGCAGA | 0.0695 |
| CAGATAGC | 0.0738 |
| AATAGCTC | 0.0703 |
| CTCACAAC | 0.0786 |
| CCTCGCAG | 0.0737 |
| CCGTCGCC | 0.0694 |
| CCTGAAGG | 0.0681 |
| AATCGTTG | 0.0788 |
| AAAGTCCA | 0.0783 |
| CGACATTA | 0.083 |
| GTCCAAGA | 0.0714 |
| GTGTCAAC | 0.0756 |
| TACAGCCA | 0.0764 |
| ATTATAGC | 0.0825 |
| AGGGGACG | 0.0705 |

| Sequence | binding signal (normalized occupancy) |
| --- | --- |
| ATGGGTCA | 0.0818 |
| CCTCATAG | 0.0755 |
| TATGAGGA | 0.0851 |
| AGAGTTAG | 0.0729 |
| GACCTTGA | 0.0732 |
| ATTTCGCC | 0.0764 |
| CGACTCTC | 0.0722 |
| CGTGTGGA | 0.0865 |
| AATGAAGT | 0.0779 |
| CACAATGC | 0.0858 |
| ACAACGGG | 0.0774 |
| GATTCGCC | 0.0738 |
| CTAAACAC | 0.0808 |
| GACTTAGA | 0.0733 |
| CATTACAA | 0.0753 |
| AGGTGCGA | 0.0728 |
| ATTTCGAG | 0.0698 |
| GCCTAGAA | 0.0716 |
| AAGGGGGA | 0.078 |
| CCAACGAA | 0.0743 |
| CATAAAAA | 0.0753 |
| AGGCGCTC | 0.0678 |
| AAGTCCAG | 0.0671 |
| ATATTTAG | 0.0794 |
| AACGGGAT | 0.0779 |

| Sequence | binding signal (normalized occupancy) |
| --- | --- |
| ATCCGAGC | 0.072 |
| AGTTTGTG | 0.0732 |
| CAAGGTGC | 0.0812 |
| TAGATCCA | 0.0771 |
| CGATTCCG | 0.066 |
| ACCCCCAG | 0.076 |
| CATAAAAC | 0.085 |
| ACTAAGGC | 0.0707 |
| CACGAGTG | 0.0961 |
| TGACCTCA | 0.0803 |
| AAGGGCAT | 0.0776 |
| CGCGGGTC | 0.0712 |
| TGGGGACA | 0.078 |
| CGATCCAG | 0.072 |
| CGTGTTAA | 0.0819 |
| CAGGGTCG | 0.0678 |
| ACGTGGAC | 0.106 |
| CATAAGCC | 0.0793 |
| ATCGTTTG | 0.0726 |
| CTGTCCGA | 0.0691 |
| GTAGCCCA | 0.073 |
| TAGGTGGA | 0.0718 |
| AAGCTGAT | 0.0732 |
| CCAGACGA | 0.0707 |
| ATGCTCTC | 0.0819 |

| Sequence | binding signal (normalized occupancy) |
| --- | --- |
| TTTAGAAA | 0.0723 |
| GATGCCTA | 0.0805 |
| ACGCCGGG | 0.0728 |
| GAGACACC | 0.0741 |
| TAGCGATA | 0.0741 |
| CCGATGTC | 0.073 |
| GAAGCGAA | 0.0707 |
| GACTGAAA | 0.0682 |
| ACGGGTGC | 0.0759 |
| GCTGACAA | 0.0757 |
| CTAATCAG | 0.0724 |
| CGGGTCGA | 0.0689 |
| AGCGTGCC | 0.0969 |
| ACCTCTAG | 0.0704 |
| AACGCCAG | 0.072 |
| AATTTAGG | 0.073 |
| CCGAGCAA | 0.0677 |
| CACGTTCG | 0.0852 |
| AGCAACCA | 0.0745 |
| ACACGCTC | 0.0924 |
| CCGACCCG | 0.078 |
| ACTACTAG | 0.0785 |

Source: paper PMC4242493
